Measurements as given in the supplement of paper PMC8728848.
The list shows a part of the results.

What was measured:
Experiment in all cases: glycan array binding signal (z-score within array); higher = stronger binding
Conditions in all cases: glycan notation: IUPAC condensed, linker removed
Gal(b1-3)GlcNAc6S = target: Gal(b1-3)GlcNAc6S
Procedure, shortened: (§1)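 The binding signal is a Z-score computed within each array and averaged over linkers. Arrays of the same protein sequence at different concentrations or buffers were also averaged together. Data originate from 3228 arrays in the Consortium for Functional Glycomics database, kept only where the protein sequence was available.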

[1] = target: Gal(b1-3)[Fuc(a1-4)]GlcNAc
Procedure, shortened: as §1

[2] = target: Gal(b1-3)[Fuc(a1-4)]GlcNAc(b1-2)Man(a1-3)[Gal(b1-3)[Fuc(a1-4)]GlcNAc(b1-2)Man(a1-6)]Man(b1-4)GlcNAc(b1-4)[Fuc(a1-6)]GlcNAc
Procedure, shortened: as §1

[3] = target: Gal(b1-3)[Fuc(a1-4)]GlcNAc(b1-3)Gal(b1-3)[Fuc(a1-4)]GlcNAc
Procedure, shortened: as §1

[4] = target: Gal(b1-3)[Fuc(a1-4)]GlcNAc(b1-3)Gal(b1-4)GlcNAc
Procedure, shortened: as §1

[5] = target: Gal(b1-3)[Fuc(a1-4)]GlcNAc(b1-3)Gal(b1-4)[Fuc(a1-3)]GlcNAc
Procedure, shortened: as §1

[6] = target: Gal(b1-3)[Fuc(a1-4)]GlcNAc(b1-6)GalNAc
Procedure, shortened: as §1

[7] = target: Gal(b1-3)[GlcNAc(b1-6)]GalNAc
Procedure, shortened: as §1

[8] = target: Gal(b1-3)[Neu5Ac(a2-6)]GalNAc
Procedure, shortened: as §1

[9] = target: Gal(b1-3)[Neu5Ac(a2-6)]GlcNAc(b1-6)Gal(b1-4)Glc
Procedure, shortened: as §1

[10] = target: Gal(b1-3)[Neu5Ac(b2-6)]GalNAc
Procedure, shortened: as §1

Gal(b1-4)Gal = target: Gal(b1-4)Gal
Procedure, shortened: as §1

[11] = target: Gal(b1-4)GalNAc(a1-3)[Fuc(a1-2)]Gal(b1-4)GlcNAc
Procedure, shortened: as §1

[12] = target: Gal(b1-4)GalNAc(b1-3)[Fuc(a1-2)]Gal(b1-4)GlcNAc
Procedure, shortened: as §1

Gal(b1-4)Glc = target: Gal(b1-4)Glc
Procedure, shortened: as §1

Gal(b1-4)Glc6S = target: Gal(b1-4)Glc6S
Procedure, shortened: as §1

Gal(b1-4)GlcNAc = target: Gal(b1-4)GlcNAc
Procedure, shortened: as §1

[13] = target: Gal(b1-4)GlcNAc(a1-6)Gal(b1-4)GlcNAc
Procedure, shortened: as §1

Gal(b1-4)GlcNAc(b1-2)Man = target: Gal(b1-4)GlcNAc(b1-2)Man
Procedure, shortened: as §1

[14] = target: Gal(b1-4)GlcNAc(b1-2)Man(a1-3)Man(b1-4)GlcNAc(b1-4)GlcNAc
Procedure, shortened: as §1

[15] = target: Gal(b1-4)GlcNAc(b1-2)Man(a1-3)[Gal(b1-4)GlcNAc(b1-2)Man(a1-6)]Man(b1-4)GlcNAc(b1-4)GlcNAc
Procedure, shortened: as §1

[16] = target: Gal(b1-4)GlcNAc(b1-2)Man(a1-3)[Gal(b1-4)GlcNAc(b1-2)Man(a1-6)]Man(b1-4)GlcNAc(b1-4)[Fuc(a1-6)]GlcNAc
Procedure, shortened: as §1

[17] = target: Gal(b1-4)GlcNAc(b1-2)Man(a1-3)[Gal(b1-4)GlcNAc(b1-2)][GlcNAc(b1-4)]Man(b1-4)GlcNAc(b1-4)GlcNAc
Procedure, shortened: as §1

[18] = target: Gal(b1-4)GlcNAc(b1-2)Man(a1-3)[GlcNAc(b1-2)Man(a1-6)]Man(b1-4)GlcNAc(b1-4)GlcNAc
Procedure, shortened: as §1

[19] = target: Gal(b1-4)GlcNAc(b1-2)Man(a1-3)[Man(a1-6)]Man(b1-4)GlcNAc(b1-4)GlcNAc
Procedure, shortened: as §1

[20] = target: Gal(b1-4)GlcNAc(b1-2)Man(a1-6)Man(b1-4)GlcNAc(b1-4)GlcNAc
Procedure, shortened: as §1

[21] = target: Gal(b1-4)GlcNAc(b1-2)Man(a1-6)[GlcNAc(b1-2)Man(a1-3)]Man(b1-4)GlcNAc(b1-4)GlcNAc
Procedure, shortened: as §1

[22] = target: Gal(b1-4)GlcNAc(b1-2)Man(a1-6)[Man(a1-3)]Man(b1-4)GlcNAc(b1-4)GlcNAc
Procedure, shortened: as §1

[23] = target: Gal(b1-4)GlcNAc(b1-2)[Gal(b1-4)GlcNAc(b1-4)]Man(a1-3)[Gal(b1-4)GlcNAc(b1-2)Man(a1-6)]Man(b1-4)GlcNAc(b1-4)GlcNAc
Procedure, shortened: as §1

[24] = target: Gal(b1-4)GlcNAc(b1-2)[Gal(b1-4)GlcNAc(b1-4)]Man(a1-3)[Gal(b1-4)GlcNAc(b1-2)[Gal(b1-4)GlcNAc(b1-6)]Man(a1-6)]Man(b1-4)GlcNAc(b1-4)GlcNAc
Procedure, shortened: as §1

[25] = target: Gal(b1-4)GlcNAc(b1-2)[Gal(b1-4)GlcNAc(b1-4)]Man(a1-3)[GlcNAc(b1-4)][Gal(b1-4)GlcNAc(b1-2)Man(a1-6)]Man(b1-4)GlcNAc(b1-4)GlcNAc
Procedure, shortened: as §1

[26] = target: Gal(b1-4)GlcNAc(b1-2)[Gal(b1-4)GlcNAc(b1-4)]Man(a1-3)[GlcNAc(b1-4)][Gal(b1-4)GlcNAc(b1-2)[Gal(b1-4)GlcNAc(b1-6)]Man(a1-6)]Man(b1-4)GlcNAc(b1-4)GlcNAc
Procedure, shortened: as §1

[27] = target: Gal(b1-4)GlcNAc(b1-2)[Gal(b1-4)GlcNAc(b1-4)]Man(a1-3)[GlcNAc(b1-4)][Gal(b1-4)GlcNAc(b1-2)[Gal(b1-4)GlcNAc(b1-6)]Man(a1-6)]Man(b1-4)GlcNAc(b1-4)[Fuc(a1-6)]GlcNAc
Procedure, shortened: as §1

[28] = target: Gal(b1-4)GlcNAc(b1-2)[Gal(b1-4)GlcNAc(b1-6)]Man(a1-6)[Gal(b1-4)GlcNAc(b1-2)Man(a1-3)]Man(b1-4)GlcNAc(b1-4)GlcNAc
Procedure, shortened: as §1

[29] = target: Gal(b1-4)GlcNAc(b1-2)[Gal(b1-4)GlcNAc(b1-6)]Man(a1-6)[Gal(b1-4)GlcNAc(b1-2)Man(a1-3)]Man(b1-4)GlcNAc(b1-4)[Fuc(a1-6)]GlcNAc
Procedure, shortened: as §1

[30] = target: Gal(b1-4)GlcNAc(b1-2)[Gal(b1-4)GlcNAc(b1-6)]Man(a1-6)[GlcNAc(b1-4)][Gal(b1-4)GlcNAc(b1-2)Man(a1-3)]Man(b1-4)GlcNAc(b1-4)GlcNAc
Procedure, shortened: as §1

[31] = target: Gal(b1-4)GlcNAc(b1-3)Gal(b1-3)GlcNAc
Procedure, shortened: as §1

[32] = target: Gal(b1-4)GlcNAc(b1-3)Gal(b1-4)Glc
Procedure, shortened: as §1

[33] = target: Gal(b1-4)GlcNAc(b1-3)Gal(b1-4)GlcNAc
Procedure, shortened: as §1

[34] = target: Gal(b1-4)GlcNAc(b1-3)Gal(b1-4)GlcNAc(b1-3)Gal(b1-4)GlcNAc
Procedure, shortened: as §1

[35] = target: Gal(b1-4)GlcNAc(b1-3)Gal(b1-4)[Fuc(a1-3)GlcNAc(b1-6)]Gal(b1-4)Glc
Procedure, shortened: as §1

[36] = target: Gal(b1-4)GlcNAc(b1-3)Gal(b1-4)[Fuc(a1-3)]GlcNAc(b1-3)Gal(b1-4)[Fuc(a1-3)]GlcNAc
Procedure, shortened: as §1

[37] = target: Gal(b1-4)GlcNAc(b1-3)GalNAc
Procedure, shortened: as §1

[38] = target: Gal(b1-4)GlcNAc(b1-3)[Gal(b1-4)GlcNAc(b1-6)]Gal(b1-4)GlcNAc
Procedure, shortened: as §1

[39] = target: Gal(b1-4)GlcNAc(b1-3)[Gal(b1-4)GlcNAc(b1-6)]GalNAc
Procedure, shortened: as §1

B1: CIH1 (Colletotrichum higginsianum) (protein)
chain: LPQATPTTPTPTSASAAATISATSSPTCSPGPVIDYTVVSGDTLTIISQRFSSGICNIADASGITNPNFLSLGQVLQVPTYVCTPDNTSCLAKEGSDTCVEGGPATHTIVAGDTFFLVAQSLGLDVNALLAANEGVDPLLLQIGDVINIPVC
Gal(b1-3)GlcNAc6S
  glycan array binding signal (z-score): -0.064
[1]
  glycan array binding signal (z-score): -0.054
[2]
  glycan array binding signal (z-score): -0.025
[3]
  glycan array binding signal (z-score): -0.078
[4]
  glycan array binding signal (z-score): -0.063
[5]
  glycan array binding signal (z-score): -0.046
[6]
  glycan array binding signal (z-score): -0.051
[7]
  glycan array binding signal (z-score): -0.078
[8]
  glycan array binding signal (z-score): -0.07
[9]
  glycan array binding signal (z-score): -0.071
[10]
  glycan array binding signal (z-score): -0.073
Gal(b1-4)Gal
  glycan array binding signal (z-score): -0.055
[11]
  glycan array binding signal (z-score): -0.09
[12]
  glycan array binding signal (z-score): -0.067
Gal(b1-4)Glc
  glycan array binding signal (z-score): -0.042
Gal(b1-4)Glc6S
  glycan array binding signal (z-score): -0.078
Gal(b1-4)GlcNAc
  glycan array binding signal (z-score): -0.054
[13]
  glycan array binding signal (z-score): -0.094
Gal(b1-4)GlcNAc(b1-2)Man
  glycan array binding signal (z-score): -0.082
[14]
  glycan array binding signal (z-score): -0.093
[15]
  glycan array binding signal (z-score): -0.074
[16]
  glycan array binding signal (z-score): -0.084
[17]
  glycan array binding signal (z-score): -0.06
[18]
  glycan array binding signal (z-score): -0.081
[19]
  glycan array binding signal (z-score): -0.059
[20]
  glycan array binding signal (z-score): -0.065
[21]
  glycan array binding signal (z-score): -0.085
[22]
  glycan array binding signal (z-score): -0.064
[23]
  glycan array binding signal (z-score): -0.069
[24]
  glycan array binding signal (z-score): -0.07
[25]
  glycan array binding signal (z-score): -0.014
[26]
  glycan array binding signal (z-score): -0.064
[27]
  glycan array binding signal (z-score): -0.059
[28]
  glycan array binding signal (z-score): -0.062
[29]
  glycan array binding signal (z-score): -0.069
[30]
  glycan array binding signal (z-score): -0.084
[31]
  glycan array binding signal (z-score): -0.038
[32]
  glycan array binding signal (z-score): -0.08
[33]
  glycan array binding signal (z-score): -0.067
[34]
  glycan array binding signal (z-score): -0.084
[35]
  glycan array binding signal (z-score): -0.061
[36]
  glycan array binding signal (z-score): -0.079
[37]
  glycan array binding signal (z-score): -0.071
[38]
  glycan array binding signal (z-score): -0.07
[39]
  glycan array binding signal (z-score): -0.05
